Some of the results follow.
tested on: PfAP2-HC AP2 domain (GST-tagged); assay: gcPBM binding intensity (ln(normalized median fluorescence intensity)); higher = stronger DNA binding
In short: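 Probes on an Agilent 4 × 180k array were primer-extended, double-stranded and 36 bp long, taken from intergenic genomic regions, with negative controls added. GST-tagged P. falciparum DNA-binding domains from E. coli, about 25 μg on average, were applied to the array for 1 h in 1× PBS containing 1% milk, 0.2 mg/ml BSA, 0.5% salmon testes DNA and 0.03% Triton X-100. Binding intensity, obtained after Alexa488 anti-GST antibody detection and a 488 nm scan, is the highest Masliner-normalised natural-log median intensity across replicate spots of either probe orientation.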

Going from “TTAAAAGAAAAAATATGTACATATATTATATATATC [XGTACX_site7009]” to “TGTGAATAAATAAGCACACATAAACACATATATAAA [CACACA_site6114]”, the “gcPBM binding intensity (ln)” value rises from 9.67 to 10.2.

Compared with “GTTTATTCTTTTTATACACACCTTATTTGATTAACA [CACACA_site4567]”, “TATACATAGAAACACACACACATATATATATATATA [CACACA_site2248]” is higher in “gcPBM binding intensity (ln)” value: 9.93 for the first, 10.8 for the second.

Compared with “AATAATATATATATATATATATATAGATATGTATAT [GTGCAC_negctrl_site653]”, “AGCAAAAATTAAATAAATAAATATATATATATATAT [TGCATGCA_negctrl_site449]” is lower in “gcPBM binding intensity (ln)” value: 9.75 for the first, 9.51 for the second.

First: GCAACATTCTAAGACACACACACACCCATATATATA [CACACA_site1053]
Second: AATGATGTCATAGGGGGTACACATAAATGTGAATGT [XGTACX_site6745]
The “gcPBM binding intensity (ln)” value of the first is higher: 10.5 for the first, 9.63 for the second.

Compared with “ATATTAATAATATATACACACATAAGTATTGTATAT [CACACA_site4095]”, “AGTTTTATATTTCTGAGTACTTATGAATCTAGCTCG [XGTACX_site4330]” is lower in “gcPBM binding intensity (ln)” value: 9.79 for the first, 9.35 for the second.

Compared with “TTTTTTTTTTTTTTTACACACATTTTAATAATTTTA [CACACA_site1492]”, “TTGTAAAAAATTCATACACACGTCTTATTTTTAAGA [CACACA_site8390]” is higher in “gcPBM binding intensity (ln)” value: 9.57 for the first, 9.59 for the second.

First: ATTTTTTCTAAAAGTTGTACATTAAAACGTGTTCAC [XGTACX_site4803]
Second: TATTTATTCTCCAACACACACACATATATATATATA [CACACA_site2894]
The “gcPBM binding intensity (ln)” value of the first is lower: 9.44 for the first, 10.3 for the second.

Compared with “AAAATGAATTTAAAATGTACTTTTTCTAAAGAGTAA [XGTACX_site2337]”, “TTATAGGTGCTTCGTAGTACATAAAAATAATATATA [XGTACX_site6979]” is higher in “gcPBM binding intensity (ln)” value: 9.22 for the first, 9.52 for the second.

Going from “AAGACTCTTTGTCCTTGTACATATATTTTTATGTTT [XGTACX_site3711]” to “TTTATATAATATGAATGTACTTATATATTTATAGAC [XGTACX_site3261]”, the “gcPBM binding intensity (ln)” value falls from 9.78 to 9.55.

Going from “CACACTTTTTAAATTAACGCATTTCAAAAAAAATAT [CACACA_negctrl_site84]” to “TTTCTTTTTTAGAGGTGTACACGTAGGCCTCTTGGA [XGTACX_site4760]”, the “gcPBM binding intensity (ln)” value falls from 9.42 to 9.33.

Compared with “TATTTATACACGCACACACACTTATACATTTATATA [CACACA_site7543]”, “TTAGATATTAATATATGTACATATTAATATATTTAC [XGTACX_site7119]” is lower in “gcPBM binding intensity (ln)” value: 10.8 for the first, 9.61 for the second.

Going from TATAATTTTTACTGGGTGCACTCGATATTTTAAATA to “TAAATGTAAAACGAAATGCACACTATGGAAAATATA [CACACA_site724]”, the “gcPBM binding intensity (ln)” value rises from 9.61 to 9.83.

First: TATAAAATAAAAAATATATATATGTATATATATATA [TGCATGCA_negctrl_site163]
Second: ATTATTTTATATACATGTACATATTATATATAAAAG [XGTACX_site2735]
The “gcPBM binding intensity (ln)” value of the first is higher: 9.63 for the first, 9.39 for the second.

Going from TATAAGTGCTCAACGGTGCATTTATAGAAGTTAAAC to ACATTTTTGGTTTTAGTGCAATATGAATTATTTTAT, the “gcPBM binding intensity (ln)” value rises from 9.61 to 9.65.

Compared with “TCTTCCATTTTTATTACACACATAAATATGAAATCG [CACACA_site3471]”, “CCTTTAAGCAAAAACACACACACATATATATATATA [CACACA_site348]” is higher in “gcPBM binding intensity (ln)” value: 9.74 for the first, 10 for the second.

“GGAATATTATTTCAATGTACATTTTGAGATTAGAAT [XGTACX_site8187]” and “ATTATTATTTTACGTAGTACATATAATAAATATTTA [XGTACX_site8934]” are the same in “gcPBM binding intensity (ln)” value: 9.5 for the first, 9.5 for the second.

Compared with “TTATTTCTAATTCGTTGTACAATATATAATATATAT [XGTACX_site5861]”, “TATCCATATTTGTTCACACACACACGGATTTATATA [CACACA_site7649]” is higher in “gcPBM binding intensity (ln)” value: 9.68 for the first, 10.1 for the second.

Going from “TTGATAGACACATGCACACATGCAATACTTTATTCA [CACACA_site3000]” to “TAGGTGTTAAAAAATACACACACAAAAAAAAAAAAA [CACACA_site7927]”, the “gcPBM binding intensity (ln)” value falls from 9.99 to 9.96.

Going from “ATTAATATGAATAAAACACACATATATAATTTGTAA [CACACA_site1929]” to “ATTTTTTTTTTTTTTTTTTATATGCTCTCCATGAGA [CACACA_negctrl_site1225]”, the “gcPBM binding intensity (ln)” value falls from 9.85 to 9.18.

First: AAAAAAAAAAAGAAATGTACATGAATATTTTAAATG [XGTACX_site4069]
Second: TGCAGTCTGGAGAAGAGTACACAGTATCTGGTAACA [XGTACX_site2037]
The “gcPBM binding intensity (ln)” value of the first is higher: 9.68 for the first, 9.49 for the second.

Compared with “TATATATTCATATGTTGTACATAAATACAAATAAGA [XGTACX_site5602]”, “AACAGAATAATACTAAATGAACGATTTCTCTTTATG [GTGCAC_negctrl_site376]” is lower in “gcPBM binding intensity (ln)” value: 9.78 for the first, 9.6 for the second.

Going from “AAAGGTAAATGTAAATAAATAAATAATAAATATATA [GTGCAC_negctrl_site681]” to “TCTTTTTACACCTCTTACATAAAACAAAATAAGGGG [XGTACX_negctrl_site12]”, the “gcPBM binding intensity (ln)” value falls from 9.77 to 9.68.

Going from “TATACATGTTATGTACATCTAATCACACGTGCAATA [CACACA_negctrl_site1267]” to “TTGTAAATTTACATTTGTACATAAATATATTAATAT [XGTACX_site3969]”, the “gcPBM binding intensity (ln)” value falls from 9.78 to 9.59.

Compared with “ATATATATAAAACACACACACACATGGTTTAAAACT [CACACA_site4219]”, “TGTATGTTTGGGTGCACACATAAATATTATATATAG [CACACA_site3397]” is lower in “gcPBM binding intensity (ln)” value: 10.4 for the first, 9.82 for the second.

Going from “CATGCTACATCTTATTGTACTTATCTAATGTTAGTA [XGTACX_site1863]” to “AAAAAGGAGAAACACACACACACACCCATATATATA [CACACA_site905]”, the “gcPBM binding intensity (ln)” value rises from 9.66 to 10.7.

Compared with “AGGCAATATTATATATATATATATATATATATATAT [CACACA_negctrl_site826]”, GTATGATGCATAAGAGTGCATAAGGATATTTCTTCA is lower in “gcPBM binding intensity (ln)” value: 9.75 for the first, 9.66 for the second.

First: AATTTAAAAAATAACAGTACATAAAATATATACATA [XGTACX_site7917]
Second: TATTGTTATTAAAAATGTACATATAAATTTCTTATT [XGTACX_site1409]
The “gcPBM binding intensity (ln)” value of the first is higher: 9.61 for the first, 9.47 for the second.

First: AAAAATAAAAGGTGTGCACACAAAAATATATATATA [CACACA_site8507]
Second: TGGCATTAAAATTTAGTGCATATATCTTAGCATGGG
The “gcPBM binding intensity (ln)” value of the first is higher: 10.5 for the first, 9.47 for the second.

For “TGTGTATATTATATGTGTACATATCAATGTTTATAT [XGTACX_site1885]”, the “gcPBM binding intensity (ln)” value was 9.86.

Reference: the supplement of paper PMC11417369
